MIC of clinical C. albicans isolates, CLSI broth microdilution (ranges and time not stated); higher = less susceptible. Call: susceptible or wild type [S] / resistant or non-wild type [R] by CLSI breakpoints or epidemiological cut-offs; intermediate and dose-dependent carry no call here (the paper groups them with resistant). '<=' and '>=' mark each drug's lowest and highest value, inferred; the source prints them plain. Isolates are numbered anew.
What was measured:
Test in all cases: CLSI broth microdilution.
micafungin = compound: CCCCCOc1ccc(-c2cc(-c3ccc(C(=O)N[C@H]4C[C@@H](O)[C@@H](O)NC(=O)[C@@H]5[C@@H](O)[C@@H](C)CN5C(=O)[C@H]([C@H](O)CC(N)=O)NC(=O)[C@H]([C@H](O)[C@@H](O)c5ccc(O)c(OS(=O)(=O)O)c5)NC(=O)[C@@H]5C[C@@H](O)CN5C(=O)[C@H]([C@@H](C)O)NC4=O)cc3)no2)cc1 [micafungin]
caspofungin = compound: CC[C@H](C)C[C@H](C)CCCCCCCCC(=O)N[C@H]1C[C@@H](O)[C@@H](NCCN)NC(=O)[C@@H]2[C@@H](O)CCN2C(=O)[C@H]([C@H](O)CCN)NC(=O)[C@H]([C@H](O)[C@@H](O)c2ccc(O)cc2)NC(=O)[C@@H]2C[C@@H](O)CN2C(=O)[C@H]([C@@H](C)O)NC1=O [caspofungin]
flucytosine = compound: Nc1[nH]c(=O)ncc1F [flucytosine]
fluconazole = compound: OC(Cn1cncn1)(Cn1cncn1)c1ccc(F)cc1F [fluconazole]
voriconazole = compound: C[C@@H](c1ncncc1F)[C@](O)(Cn1cncn1)c1ccc(F)cc1F [voriconazole]
posaconazole = compound: CC[C@@H]([C@H](C)O)n1ncn(-c2ccc(N3CCN(c4ccc(OC[C@@H]5CO[C@@](Cn6cncn6)(c6ccc(F)cc6F)C5)cc4)CC3)cc2)c1=O [posaconazole]
itraconazole = compound: CCC(C)n1ncn(-c2ccc(N3CCN(c4ccc(OCC5COC(Cn6cncn6)(c6ccc(Cl)cc6Cl)O5)cc4)CC3)cc2)c1=O [itraconazole]
anidulafungin = compound: CCCCCOc1ccc(-c2ccc(-c3ccc(C(=O)N[C@H]4C[C@@H](O)[C@@H](O)NC(=O)[C@@H]5[C@@H](O)[C@@H](C)CN5C(=O)[C@H]([C@@H](C)O)NC(=O)[C@H]([C@H](O)[C@@H](O)c5ccc(O)cc5)NC(=O)[C@@H]5C[C@@H](O)CN5C(=O)[C@H]([C@@H](C)O)NC4=O)cc3)cc2)cc1 [anidulafungin]
amphotericin B = compound: C[C@@H]1[C@H](O)[C@@H](C)/C=C/C=C/C=C/C=C/C=C/C=C/C=C/[C@H](O[C@@H]2O[C@H](C)[C@@H](O)[C@H](N)[C@@H]2O)C[C@@H]2O[C@](O)(C[C@@H](O)C[C@@H](O)[C@H](O)CC[C@@H](O)C[C@@H](O)CC(=O)O[C@H]1C)C[C@H](O)[C@H]2C(=O)O [amphotericin B]

Test System	MIC (micafungin)	MIC (caspofungin)	MIC (flucytosine)	MIC (fluconazole)	MIC (voriconazole)	MIC (posaconazole)	MIC (itraconazole)	MIC (anidulafungin)	MIC (amphotericin B)
Candida albicans isolate 116 (Erg11p: E266D,D153E, Fur1p: WT, Tac1p: C858Y,N823K,I558V,F189S)	≤ 0.008 mg/L [S]	0.015 mg/L [S]	≤ 0.06 mg/L [S]	0.5 mg/L [S]	≤ 0.008 mg/L [S]	0.015 mg/L [S]	≤ 0.015 mg/L [S]	≤ 0.015 mg/L [S]	≤ 0.12 mg/L [S]
Candida albicans isolate 265 (Erg11p: WT, Fur1p: WT, Tac1p: WT)	≤ 0.008 mg/L [S]	0.03 mg/L [S]	≤ 0.06 mg/L [S]	0.25 mg/L [S]	≤ 0.008 mg/L [S]	0.015 mg/L [S]	0.03 mg/L [S]	≤ 0.015 mg/L [S]	0.25 mg/L [S]
Candida albicans isolate 341 (Erg11p: WT, Fur1p: WT, Tac1p: I558V,A377V,F189S,N174D,M170I,K87N)	≤ 0.008 mg/L [S]	0.015 mg/L [S]	≤ 0.06 mg/L [S]	0.25 mg/L [S]	≤ 0.008 mg/L [S]	0.015 mg/L [S]	≤ 0.015 mg/L [S]	≤ 0.015 mg/L [S]	0.5 mg/L [S]
Candida albicans isolate 43 (Erg11p: V488I,E266D, Fur1p: WT, Tac1p: N896S,I895T)	0.015 mg/L [S]	0.03 mg/L [S]	0.12 mg/L [S]	32 mg/L [R]	≥ 8 mg/L [R]	0.06 mg/L [S]	≥ 16 mg/L [R]	≤ 0.015 mg/L [S]	0.5 mg/L [S]
Candida albicans isolate 113 (Erg11p: WT, Fur1p: WT, Tac1p: I558V,A377V,F189S,N174D,M170I,K87N)	0.015 mg/L [S]	0.03 mg/L [S]	≤ 0.06 mg/L [S]	≤ 0.12 mg/L [S]	≤ 0.008 mg/L [S]	≤ 0.008 mg/L [S]	≤ 0.015 mg/L [S]	0.03 mg/L [S]	0.25 mg/L [S]
Candida albicans isolate 302 (Erg11p: E266D, Fur1p: WT, Tac1p: N896S,A377V,F189S,N174D,M170I,K87N)	0.015 mg/L [S]	0.03 mg/L [S]	≤ 0.06 mg/L [S]	0.25 mg/L [S]	≤ 0.008 mg/L [S]	0.015 mg/L [S]	0.03 mg/L [S]	0.03 mg/L [S]	0.25 mg/L [S]
Candida albicans isolate 131 (Erg11p: Y257H,A114S, Fur1p: R101C, Tac1p: A736V)	0.015 mg/L [S]	0.015 mg/L [S]	0.25 mg/L [S]	16 mg/L [R]	1 mg/L [R]	0.5 mg/L [R]	0.5 mg/L [R]	≤ 0.015 mg/L [S]	0.5 mg/L [S]
Candida albicans isolate 13 (Erg11p: WT, Fur1p: WT, Tac1p: N896S)	≤ 0.008 mg/L [S]	0.03 mg/L [S]	≤ 0.06 mg/L [S]	0.25 mg/L [S]	≤ 0.008 mg/L [S]	0.015 mg/L [S]	0.03 mg/L [S]	0.03 mg/L [S]	0.5 mg/L [S]
Candida albicans isolate 281 (Erg11p: WT, Fur1p: WT, Tac1p: N896S,C858Y,N823K,I558V,F189S)	0.015 mg/L [S]	0.03 mg/L [S]	≤ 0.06 mg/L [S]	0.5 mg/L [S]	≤ 0.008 mg/L [S]	0.03 mg/L [S]	0.06 mg/L [S]	0.03 mg/L [S]	0.5 mg/L [S]
Candida albicans isolate 184 (Erg11p: V437I,E266D, Fur1p: WT, Tac1p: S937L,I895T,L695F,I558V,F189S,L131I)	≤ 0.008 mg/L [S]	0.03 mg/L [S]	0.12 mg/L [S]	0.5 mg/L [S]	≤ 0.008 mg/L [S]	0.03 mg/L [S]	0.03 mg/L [S]	≤ 0.015 mg/L [S]	1 mg/L [S]
Candida albicans isolate 326 (Erg11p: K499N,E266D, Fur1p: WT, Tac1p: R800K,L695F)	0.015 mg/L [S]	0.06 mg/L [S]	≤ 0.06 mg/L [S]	0.25 mg/L [S]	≤ 0.008 mg/L [S]	0.015 mg/L [S]	0.03 mg/L [S]	0.12 mg/L [S]	0.5 mg/L [S]
Candida albicans isolate 221 (Erg11p: D153E, Fur1p: WT, Tac1p: N896S)	≤ 0.008 mg/L [S]	0.015 mg/L [S]	≤ 0.06 mg/L [S]	0.5 mg/L [S]	≤ 0.008 mg/L [S]	0.015 mg/L [S]	0.03 mg/L [S]	0.03 mg/L [S]	0.25 mg/L [S]
Candida albicans isolate 151 (Erg11p: G465S,Y132H, Fur1p: R101C, Tac1p: WT)	0.03 mg/L [S]	0.03 mg/L [S]	≤ 0.06 mg/L [S]	0.5 mg/L [S]	≤ 0.008 mg/L [S]	0.03 mg/L [S]	0.03 mg/L [S]	≤ 0.015 mg/L [S]	0.5 mg/L [S]
Candida albicans isolate 367 (Erg11p: E266D, Fur1p: WT, Tac1p: T885K,I558V,A430V,A377V,F189S,N174D,M170I,M170V,K87N)	0.015 mg/L [S]	0.03 mg/L [S]	≤ 0.06 mg/L [S]	0.25 mg/L [S]	≤ 0.008 mg/L [S]	0.015 mg/L [S]	≤ 0.015 mg/L [S]	≤ 0.015 mg/L [S]	0.25 mg/L [S]
Candida albicans isolate 285 (Erg11p: WT, Fur1p: WT, Tac1p: I558V,A377V,F189S,N174D,M170I,K87N)	0.015 mg/L [S]	0.03 mg/L [S]	≤ 0.06 mg/L [S]	0.25 mg/L [S]	≤ 0.008 mg/L [S]	≤ 0.008 mg/L [S]	≤ 0.015 mg/L [S]	≤ 0.015 mg/L [S]	0.5 mg/L [S]
Candida albicans isolate 307 (Erg11p: V488I,E266D, Fur1p: WT, Tac1p: I558V,A377V)	0.015 mg/L [S]	0.03 mg/L [S]	≤ 0.06 mg/L [S]	0.25 mg/L [S]	≤ 0.008 mg/L [S]	0.015 mg/L [S]	≤ 0.015 mg/L [S]	0.06 mg/L [S]	0.5 mg/L [S]
Candida albicans isolate 15 (Erg11p: WT, Fur1p: WT, Tac1p: N896S)	0.015 mg/L [S]	0.06 mg/L [S]	0.12 mg/L [S]	0.5 mg/L [S]	≤ 0.008 mg/L [S]	0.03 mg/L [S]	0.12 mg/L [S]	0.12 mg/L [S]	0.5 mg/L [S]
